{"source": "PubChem BioAssay AID2675", "about": "(National Center for Advancing Translational Sciences (NCATS), 2010)", "note": "Hit rate of the full screen: of about 280,000 compounds, about 100 (0.036%) were called active. Inconclusive results, whose numbers are uncertain, are shown with a selection of clear calls. The call rests on the fitted dose curve; in most records, active means well fitted inhibition curve with a large enough effect in the signal ratio, with a control signal flat (not every such curve was filed as active); inconclusive means small, poorly fitted or top-dose-only effect, or effect the other way, or a change in a side signal; inactive means no such curve, though single readings can be large or run the other way; the % refers to the signal ratio. Potencies beside an inconclusive call are fits to weak or partial responses and may not hold up. A note “side channel” means that the fit belongs to a control or component signal, not to the main read-out. On the % scale 0 is the no-effect control and ±100 the full control effect; potency means the concentration at half of the fitted maximal effect; tags describe the fitted curve by direction and shape or compound fluorescence and quenching.", "data": [{"target": "Muscleblind-like protein 1 (Homo sapiens) (UniProt Q9NR56)", "sequence (Q9NR56 whole entry, looked up)": "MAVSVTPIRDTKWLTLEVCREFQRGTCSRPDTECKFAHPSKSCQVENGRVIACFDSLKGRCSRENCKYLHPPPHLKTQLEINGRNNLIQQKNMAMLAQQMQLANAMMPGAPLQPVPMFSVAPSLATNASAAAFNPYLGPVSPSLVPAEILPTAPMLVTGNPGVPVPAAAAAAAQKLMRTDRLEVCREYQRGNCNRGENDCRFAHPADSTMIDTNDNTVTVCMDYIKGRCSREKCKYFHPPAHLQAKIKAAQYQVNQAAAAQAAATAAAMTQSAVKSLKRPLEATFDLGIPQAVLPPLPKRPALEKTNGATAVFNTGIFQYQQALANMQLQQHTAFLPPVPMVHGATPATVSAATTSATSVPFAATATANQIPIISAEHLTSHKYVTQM", "assay": "qHTS Assay for Inhibitors of MBNL1-poly(CUG) RNA binding", "conditions": "TR-FRET MBNL1-His/biotin-(CUG)12 binding, 665/545 ratio; activity change, negative = inhibition: at 57.5 µM (top of the series)", "in_short": "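Inhibition of protein-RNA binding appears as loss of TR-FRET between terbium anti-His antibody on MBNL1-His and streptavidin-XL665 on biotin-(CUG)12. Activity is normalized to buffer-only and uninhibited-complex controls.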", "values": [{"smiles": "O=C(C/C=N\\OCc1ccc([N+](=O)[O-])cc1)Nc1ccccc1", "Potency": "inconclusive: 20 µM [quencher, side channel, partial curve]"}, {"smiles": "Cc1cc(C)c(OCCCCN2CCC(C)CC2)c(Br)c1", "Potency": "inconclusive: 0.794 µM [fluorescent, full curve, poor fit]"}, {"smiles": "CC(=O)c1cccc(NC(=O)CC2S/C(=N/N=C/c3ccccc3)NC2=O)c1", "note": "(stereo unspecified)", "Potency": "inconclusive: 20 µM [fluorescent, side channel, single point]"}, {"smiles": "O=C1CN(C(=O)c2ccc(Br)o2)C(c2ccccc2)c2cc(Br)ccc2N1", "note": "(stereo unspecified)", "Potency": "inconclusive: 100 µM [inhibitor, single point]"}, {"smiles": "CS(=O)(=O)N1CCN(C(=O)Cc2ccc([N+](=O)[O-])cc2)CC1", "Potency": "inconclusive: 25.1 µM [quencher, partial curve]"}, {"smiles": "O=c1oc2ccccc2c(Nc2cccc3cccnc23)c1[N+](=O)[O-]", "Potency": "inconclusive: 17.8 µM [quencher, side channel, partial curve]"}, {"smiles": "O=C(COc1nncc2ccccc12)Nc1ccc(F)c(F)c1", "Potency": "inconclusive: 25.1 µM [quencher, side channel, single point]"}, {"smiles": "O=C(O)c1ccc(S(=O)(=O)/N=C2\\C=C(Nc3ccccc3F)C(=O)c3ccccc32)cc1", "Potency": "inconclusive: 28.2 µM [quencher, side channel, partial curve]"}, {"smiles": "CCOC(=O)c1sc(NC(=O)c2ccccc2F)c(C(N)=O)c1C", "Potency": "inconclusive: 5.62 µM [fluorescent, side channel, single point]"}, {"smiles": "N#CC(C#N)=C1C=CC=CN1/C(=C\\c1ccco1)C(=O)c1ccc(-c2ccccc2)cc1", "Potency": "inactive"}, {"smiles": "COc1ccc(C(C#N)C2(C)OCCO2)cc1OC", "note": "(stereo unspecified)", "Potency": "inconclusive: 3.55 µM [fluorescent, side channel, partial curve]"}, {"smiles": "CN(C)CCCN(C(=O)c1ccc2c(c1)CCCC2)c1nc2ccc(F)cc2s1", "Potency": "inactive"}, {"smiles": "CC(C)(C)C1=Nn2c(nnc2-c2ccccn2)SC1", "Potency": "inactive"}, {"smiles": "COc1ccccc1C(=O)Nc1ccc(Oc2ncnc3sc(-c4ccccc4)cc23)cc1", "Potency": "inactive"}, {"smiles": "CCCN1CNC(=S)N(c2cc(C)ccc2C)C1", "Potency": "inactive"}, {"smiles": "O=C(NCc1ccccc1)c1cc(-c2ccncc2)nc2ccccc12", "Potency": "inconclusive: 25.1 µM [quencher, side channel, partial curve]"}, {"smiles": "O=C(OCCN1C(=O)c2cccc3c(N4CCOCC4)ccc(c23)C1=O)c1ccc(Cl)cc1", "activity change, negative = inhibition": "inconclusive: 12.3% [phenotype inactive]"}, {"smiles": "O=C(CCc1ccccc1)N1CCN(c2ccc([N+](=O)[O-])cc2)CC1", "Potency": "inconclusive: 15.8 µM [quencher, partial curve]"}, {"smiles": "CSc1oc(-c2ccc(F)cc2)nc1S(=O)(=O)c1ccccc1", "Potency": "inactive"}, {"smiles": "COc1ccc(Cl)cc1NC(=O)CS(=O)(=O)c1cccc2nsnc12", "Potency": "inconclusive: 3.55 µM [quencher, side channel, full curve]"}, {"smiles": "COc1ccc(-c2nnc3ccc(SCC(=O)NCc4ccco4)nn23)cc1OC", "Potency": "inconclusive: 25.1 µM [quencher, partial curve]"}, {"smiles": "Cc1cc(C)n(CNc2nc(C(F)(F)F)cs2)n1", "Potency": "inactive"}, {"smiles": "COC(=O)CSc1nnc(CNS(=O)(=O)c2ccc(C)cc2)n1C", "Potency": "inactive"}, {"smiles": "c1ccc(-c2csc(Nc3ncccn3)n2)cc1", "Potency": "inconclusive: 3.98 µM [fluorescent, side channel, partial curve]"}, {"smiles": "CCOc1ccc(Nc2nc(C)cc(C)c2C#N)cc1", "Potency": "inconclusive: 7.08 µM [quencher, side channel, single point]"}, {"smiles": "COc1ccc(C(=O)Sc2ccc(C)cc2)cc1OC", "Potency": "inactive"}, {"smiles": "O=C(NCC(c1cccs1)N1CCOCC1)c1cc([N+](=O)[O-])ccc1Cl", "note": "(stereo unspecified)", "Potency": "inconclusive: 3.16 µM [quencher, side channel, single point]"}, {"smiles": "O=c1nc2n(c3ccc(Br)cc13)CCS2", "Potency": "inconclusive: 15.8 µM [quencher, side channel, single point]"}, {"smiles": "COc1ccc(S(=O)(=O)NCc2cn3c(C)csc3n2)cc1F", "Potency": "inconclusive: 6.31 µM [quencher, side channel, partial curve]"}, {"smiles": "COc1ccc2nc(N(CCN(C)C)C(=O)/C=C/c3cccs3)sc2c1", "Potency": "inactive"}, {"smiles": "O=C(N/N=C/c1cc([N+](=O)[O-])ccc1O)C1CC1", "Potency": "inconclusive: 20 µM [quencher, side channel, partial curve]"}, {"smiles": "Cn1c(SCC(=O)Nc2ccc(F)cc2)nc2c(c1=O)SCC2", "Potency": "inconclusive: 1.26 µM [quencher, side channel, full curve]"}, {"smiles": "CN(C)c1ccc(N=Nc2ccccc2C(=O)OCC(=O)N(C)c2ccccc2)cc1", "Potency": "inconclusive: 11.2 µM [activator, single point]"}, {"smiles": "COC(=O)c1ccc(NC(=O)C(=O)NCC2CCCO2)cc1", "note": "(stereo unspecified)", "Potency": "inactive"}, {"smiles": "O=C(CN1C(=O)c2cccc3cccc1c23)N1CCN(Cc2ccc3c(c2)OCO3)CC1", "Potency": "inconclusive: 7.08 µM [quencher, side channel, partial curve]"}, {"smiles": "O=C(CCCCCN1C(=O)c2cccc3cccc(c23)C1=O)NCc1cccnc1", "Potency": "inconclusive: 1.78 µM [quencher, side channel, full curve]"}, {"smiles": "COc1ccc(C2C3=C(CCCC3=O)Nc3ccc4ncccc4c32)cc1OC", "note": "(stereo unspecified)", "Potency": "inconclusive: 14.1 µM [quencher, side channel, partial curve]"}, {"smiles": "Cc1cccn2c(=O)c3cc(C(=O)N4CCCC(C)C4)sc3nc12", "note": "(stereo unspecified)", "Potency": "inconclusive: 8.91 µM [quencher, side channel, full curve, poor fit]"}, {"smiles": "COc1cc2c(cc1OC)C(/C(C#N)=N\\O)=NC(C)(C)C2", "Potency": "inconclusive: 7.94 µM [quencher, side channel, full curve, poor fit]"}, {"smiles": "Cc1cc(N2CCCC2)ccc1/C=C1\\NC(=S)N(C)C1=O", "Potency": "inconclusive: 2.51 µM [quencher, side channel, partial curve, poor fit]"}, {"smiles": "CC(=O)Nc1ccc(NC2=C/C(=N/S(=O)(=O)c3cccs3)c3ccccc3C2=O)cc1", "Potency": "inconclusive: 39.8 µM [quencher, side channel, single point]"}]}]}
